Results published in the supplement of paper PMC11417369.
± gives the standard deviation of the averaged measurements. This is one part of the list.

test system: PfAP2-I AP2 domain 3 (GST-tagged); experiment: gcPBM binding intensity (ln(normalized median fluorescence intensity)); higher = stronger DNA binding
How it was run: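 An Agilent 4 × 180k array of primer-extended double-stranded 36-bp intergenic genomic probes, with negative controls, was incubated for 1 h with GST-tagged P. falciparum DNA-binding domains expressed in E. coli. Alexa488 anti-GST antibody detected bound protein, scanned at 488 nm. Binding intensity is the highest Masliner-normalised natural-log median intensity across replicate spots of either probe orientation.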

Row | Sequence | gcPBM binding intensity (ln)
1 | AACAAATATATTAACACACAAACATATAAACCAATG [CACACA_site3970] | 7.96 ± 0.64
2 | AATTATTGTGAAGGGAAAACAAAAAAGTTTATAATT [CACACA_negctrl_site1337] | 8.01 ± 0.72
3 | AACTAATAAAAAAAAAGTACACAATATGTAAATAAC [XGTACX_site5263] | 8.29 ± 0.38
4 | AAGCGAATATATATCACACACAAAAAAATCAGACTA [CACACA_site2108] | 7.7 ± 0.62
5 | AAATTAATTAAATATACACACATATATAGATATATA [CACACA_site6321] | 7.5 ± 0.49
6 | ACCACATTTTTTTTTGCATGTTGTTTAAAAAAAGGC [TGCATGCA_site137] | 7.97 ± 0.67
7 | TATATATTATATATATGTACATACTTTTTACGTTCA [XGTACX_site2493] | 7.83 ± 0.29
8 | TATTGTAATATTAGCACACATTACCTCACTACAAAT [CACACA_site5419] | 8.75 ± 0.35
9 | AACATGAAAATATATGCATTTGTATATATATATATA [TGCATGCA_negctrl_site16] | 9.25 ± 0.83
10 | AAAATACTAGATAGGGGAAAAAAAAAAAAAAAAAAA [CACACA_negctrl_site1732] | 8.19 ± 0.71
11 | AAAGCACCCATGCACACACACAAAGGAAAAGAAAAA [CACACA_site6249] | 8.32 ± 0.38
12 | ATAAATGATAAAATTGCATGTGAATGTGAAAATATT [TGCATGCA_site251] | 7.95 ± 0.73
13 | AATAAAACCCCGAAATCACACATTAAATGAAAAATA [CACACA_site4732] | 8.74 ± 0.89
14 | TGGGAAAATAATATTTATTTTATATATAAATATATA [CACACA_negctrl_site121] | 7.28 ± 0.32
15 | TAAAATAAAACAAACACACACACACGGACACAAAAA [CACACA_site7754] | 8.31 ± 0.3
16 | TTTTTTTTTTATTTTGCACACTTCTAATTTAGTTCT [CACACA_site5828] | 10.3 ± 0.13
17 | ATATAAATAAAATATACACACATACTGTTCATTTAA [CACACA_site7880] | 7.71 ± 0.49
18 | AAAAAAAAAAAAGATTGTACAGAATACTTTTAAAAT [XGTACX_site3576] | 7.54 ± 0.57
19 | AAGTTAATGAAAAAATGTACCCAGAGTATTTTAAAA [XGTACX_site2997] | 7.59 ± 0.57
20 | TTGTTTTTCTTTGAATGTACTTAATGATTTCCAATT [XGTACX_site2499] | 7.7 ± 0.59
21 | TCCATATATTTTAAAAGTACACATAAAAATTATTTA [XGTACX_site8127] | 8.055 ± 0.049
22 | AATGGAAAAATAGGCACACACACATATATACATATA [CACACA_site1298] | 7.98 ± 0.51

Row | Sequence | gcPBM binding intensity (ln)
23 | GTTTCAAAATTAAACACACACAAAAAAAAAAAAAAA [CACACA_site2680] | 8.01 ± 0.42
24 | TATTATATCTTTATTATTCATCTAAAATTTGTATTT [TGCATGCA_negctrl_site233] | 7.52 ± 0.35
25 | CTATAACCTCTGTTCACACATATATCATAATTTACA [CACACA_site5446] | 8.04 ± 0.59
26 | TTTATTTTGATTTAATGTACAAATAGTAAAACAAAA [XGTACX_site4789] | 7.93 ± 0.33
27 | ACATTATATCTAAGTACACACATTAATTTTTTTTTT [CACACA_site7850] | 8.07 ± 0.35
28 | TATTTAAAAGCATATACACACAACTGGAATGAAAAG [CACACA_site6128] | 8.14 ± 0.77
29 | TATATAATATATATATGTACACATATACATTTTTAT [XGTACX_site2832] | 7.7 ± 0.3
30 | TTTTCGGATAATAATTGTACGAAACATTTAAAAAAA [XGTACX_site8898] | 7.63 ± 0.52
31 | TTGTAAGAAAAACACACACACACATATATATATATA [CACACA_site795] | 9.46 ± 0.41
32 | ACTCAAAATTATAATTGTACAAATGCTTTGTTTAAT [XGTACX_site3437] | 7.79 ± 0.49
33 | TAAATAGTTATAAAAGTGCAAAAAAAAAAAAAAAAA [GTGCAC_site9550] | 10.1 ± 0.53
34 | ATCATATATGTTATTACACACGTTATGTTATTATAA [CACACA_site2712] | 7.92 ± 0.43
35 | TATAATTTAGCTTGTGCATGCAGGTGCTACATTTGT [TGCATGCA_site217] | 9.92 ± 0.042
36 | TTAATTTCAAGTAGAAGTACTTTTATGATTGTGAGG [XGTACX_site1247] | 7.63 ± 0.47
37 | GTGCATAGATGATATACACACAATATAATAGTATGT [CACACA_site5373] | 9.48 ± 0.52
38 | AATTTAAAAGAAAAAGAAAAATAATAAACAGAAGCA [XGTACX_negctrl_site503] | 7.63 ± 0.76
39 | ATAAAACAAAAATATAAACACACATACATTGGTTTT [CACACA_site8809] | 7.9 ± 0.83
40 | ATAAAAAATAAATATATACATACATACATACATATA [XGTACX_negctrl_site507] | 7.46 ± 0.49
41 | TTTTCAAAAATATACACACACATAAATATAGGTATA [CACACA_site6506] | 7.71 ± 0.35
42 | TTGATTTACTATAGATGTACGTAAAATATAAATAAA [XGTACX_site8256] | 7.92 ± 0.26
43 | AATATATAAATAAATACACACATAAAATAGAAATAT [CACACA_site1663] | 8 ± 0.62
44 | AAAAACAAAAAAGAAGCACACATATATATATATATA [CACACA_site8779] | 9.62 ± 0.3
